In the supplement of paper PMC9446081:
Among all 39,000 compounds or so, about 220 (0.56%) showed activity. This is one part of the list.

test system: Escherichia coli K-12 BW25113; test: relative growth (OD600 normalised to plate interquartile mean) (fraction); higher = less growth inhibition, active = 0.2 or less; details: 50 µM; LB; incubation time: overnight (16-24 h)
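Also: static incubation at 37 °C against the wild-type strain, values averaged over two biological replicates.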

Q: How did the relative growth turn out when `C[C@@H]1CN([C@@H](C)CO)C(=O)c2cc(NC(=O)NC3CCCCC3)ccc2O[C@@H](C)CCCCO[C@@H]1CN(C)CC1CCCCC1` was run?
A: The relative growth was inactive: 1.01.

Q: `Nc1ncnc2c1ncn2[C@@H]1O[C@H](CSCC[C@H](N)C(=O)O)[C@@H](O)[C@H]1O` was tested. Which relative growth did it give?
A: Its relative growth is inactive: 0.995.

Q: With `CCS(=O)(=O)N1C[C@]2(CCN(CC2)C(=O)Cc2ccccc2)c2c(n(c3cc(ccc23)OC)C)[C@@H]1CO` as the compound, how does the relative growth read?
A: The relative growth was inactive: 0.978.

Q: With `COc1cc(C=CC(=O)O)ccc1O` as the compound, how does the relative growth read?
A: Its relative growth is inactive: 0.846.

Q: Which relative growth does the source give for `COc1c2ccoc2cc2oc(C)cc(=O)c12` here?
A: Its relative growth is inactive: 1.02.

Q: `C[C@@H]1CN([C@@H](C)CO)C(=O)Cc2cc(NS(=O)(=O)c3cn(C)cn3)ccc2O[C@@H]1CN(C)CC1CCCCC1` was tested. Which relative growth did it give?
A: Its relative growth is inactive: 0.997.

Q: With `O=C(C[C@@H]1C[C@H]2c3cc(NC(=O)C4CCOCC4)ccc3O[C@H]2[C@H](CO)O1)NCc1ccc(Cl)cc1` as the compound, how does the relative growth read?
A: Its relative growth is inactive: 0.997.

Q: How did the relative growth turn out when `COc1ccc(S(=O)(=O)N2C[C@H](O)COC[C@@H]3O[C@@H](CC(=O)N[C@H]4CCN(Cc5ccccc5)C4)CC[C@H]32)cc1` was run?
A: The relative growth was inactive: 0.993.

Q: With `CO[C@@H]1CN(C)C(=O)c2cc(NC(=O)Nc3ccccc3)ccc2OC[C@H](C)N(C(=O)CN(C)C)C[C@@H]1C` as the compound, how does the relative growth read?
A: The relative growth was inactive: 1.01.

Q: `O=c1cccn[nH]1` was tested. Which relative growth did it give?
A: Its relative growth is inactive: 1.01.

Q: `C[C@H](CO)N1C[C@H](C)[C@H](CN(C)C(=O)Nc2ccc(C(F)(F)F)cc2)OCc2cnnn2CCCC1=O` was tested. Which relative growth did it give?
A: Its relative growth is inactive: 1.

Q: `C[C@@H]1CN(C(=N)N)C[C@H](C)O1` was tested. Which relative growth did it give?
A: Its relative growth is inactive: 1.01.

Q: For `O=C(C[C@H]1CC[C@@H]2[C@H](COC[C@H](O)CN2S(=O)(=O)c2ccc(Cl)cc2)O1)N[C@@H]1CCN(Cc2ccccc2)C1`, which relative growth is on record?
A: The relative growth was inactive: 0.998.

Q: With `COc1ccc(C2=N[C@H](c3ccc(Cl)cc3)[C@H](c3ccc(Cl)cc3)N2C(=O)N2CCNC(=O)C2)c(OC(C)C)c1` as the compound, how does the relative growth read?
A: Its relative growth is inactive: 0.989.

Q: Which relative growth does the source give for `Cc1noc(C)c1S(=O)(=O)Nc1ccc2c(c1)C(=O)N([C@@H](C)CO)C[C@H](C)[C@@H](CN(C)CC1CC1)O2` here?
A: The relative growth was inactive: 1.01.

Q: `Cc1noc(C)c1S(=O)(=O)Nc1ccc2c(c1)C(=O)N([C@H](C)CO)C[C@H](C)[C@H](CN(C)C(=O)Nc1ccccc1)OCCCC[C@H](C)O2` was tested. Which relative growth did it give?
A: The relative growth was inactive: 0.989.

Q: `Cn1c(=O)c2c(ncn2CC(=O)NS(=O)(=O)c2ccccc2)n(C)c1=O` was tested. Which relative growth did it give?
A: Its relative growth is inactive: 1.

Q: With `CN(C)C(=O)CN1CCC2(CC1)O[C@H](C(=O)NCc1ccccn1)Cn1ccnc12` as the compound, how does the relative growth read?
A: Its relative growth is inactive: 0.994.

Q: For `C[C@@H]1CCCCO[C@H](CN(C)C(=O)NC2CCCCC2)[C@@H](C)CN([C@@H](C)CO)C(=O)c2cc(NS(=O)(=O)c3ccccc3)ccc2O1`, which relative growth is on record?
A: The relative growth was inactive: 1.01.

Q: For `C[C@H](CO)N1C[C@H](C)[C@@H](CN(C)S(=O)(=O)c2cn(C)cn2)Oc2c(NC(=O)c3ccc(-c4nccs4)cc3)cccc2C1=O`, which relative growth is on record?
A: Its relative growth is inactive: 0.98.

Q: For `COc1ccc(NC(=O)Nc2ccc3c(c2)CC(=O)N([C@@H](C)CO)C[C@H](C)[C@H](CN(C)S(=O)(=O)c2c(C)noc2C)O3)cc1`, which relative growth is on record?
A: The relative growth was inactive: 1.01.

Q: Which relative growth does the source give for `Cc1ccc(S(=O)(=O)Nc2ccc3c(c2)CC(=O)N([C@H](C)CO)C[C@@H](C)[C@@H](CN(C)Cc2ccc(Cl)c(Cl)c2)O3)cc1` here?
A: Its relative growth is inactive: 1.01.

Q: `Cc1ccc(S(=O)(=O)N(C)C[C@@H]2OCCCC[C@H](C)Oc3ccc(NS(C)(=O)=O)cc3C(=O)N([C@@H](C)CO)C[C@@H]2C)cc1` was tested. Which relative growth did it give?
A: The relative growth was inactive: 0.996.

Q: How did the relative growth turn out when `Cc1noc(C)c1NC(=O)N(C)C[C@@H]1OCCCC[C@@H](C)Oc2ccc(NC(=O)C3CCCCC3)cc2C(=O)N([C@H](C)CO)C[C@@H]1C` was run?
A: Its relative growth is inactive: 0.994.

Q: How did the relative growth turn out when `C[C@@H]1CN([C@H](C)CO)S(=O)(=O)c2ccc(-c3cccnc3)cc2O[C@@H]1CN(C)C(=O)c1cccc(F)c1` was run?
A: The relative growth was inactive: 1.05.

Q: With `C[C@H]1CN([C@@H](C)CO)C(=O)c2cccc(NS(=O)(=O)c3cccs3)c2O[C@H]1CN(C)S(=O)(=O)c1ccc(F)cc1` as the compound, how does the relative growth read?
A: The relative growth was inactive: 0.993.

Q: `C[C@H]1CCCCO[C@H](CN(C)Cc2ccc3c(c2)OCO3)[C@@H](C)CN([C@@H](C)CO)C(=O)c2cc(NC(=O)NC3CCCCC3)ccc2O1` was tested. Which relative growth did it give?
A: Its relative growth is inactive: 1.01.

Q: `Cc1sc2[nH]cnc(=S)c2c1C` was tested. Which relative growth did it give?
A: Its relative growth is inactive: 0.958.

Q: How did the relative growth turn out when `C[C@@H]1CCCCO[C@H](CN(C)C(=O)Nc2ccc(C(F)(F)F)cc2)[C@H](C)CN([C@@H](C)CO)C(=O)c2cc(N(C)C)ccc2O1` was run?
A: Its relative growth is inactive: 0.964.

Q: How did the relative growth turn out when `C[C@@H]1CCCCO[C@@H](CN(C)Cc2ccc(Cl)c(Cl)c2)[C@@H](C)CN([C@H](C)CO)C(=O)c2cc(NC(=O)c3ccncc3)ccc2O1` was run?
A: The relative growth was inactive: 1.01.

Q: `COc1ccc(S(=O)(=O)N(C)C[C@@H]2OCCCC[C@H](C)Oc3ccc(NC(=O)Nc4ccc(C(F)(F)F)cc4)cc3C(=O)N([C@@H](C)CO)C[C@@H]2C)cc1` was tested. Which relative growth did it give?
A: The relative growth was inactive: 1.04.

Q: `COc1ccc(NC(=O)Nc2ccc3c(c2)C(=O)N([C@@H](C)CO)C[C@H](C)[C@H](CN(C)CC2CCCCC2)OCCCC[C@@H](C)O3)cc1` was tested. Which relative growth did it give?
A: The relative growth was inactive: 1.02.

Q: For `CCCN1C[C@H](C(=O)O)CCC1=O`, which relative growth is on record?
A: Its relative growth is inactive: 1.01.

Q: `C[C@H](CO)N1C[C@H](C)[C@@H](CN(C)Cc2ccc3c(c2)OCO3)Oc2ccc(NC(=O)Nc3ccc(C(F)(F)F)cc3)cc2CC1=O` was tested. Which relative growth did it give?
A: The relative growth was inactive: 0.988.

Q: How did the relative growth turn out when `N[C@H]1CCN(c2ccc(C(F)(F)F)cn2)C1` was run?
A: The relative growth was inactive: 1.

Q: With `COc1ccc(CN(C)C[C@H]2Oc3c(NS(C)(=O)=O)cccc3C(=O)N([C@H](C)CO)C[C@@H]2C)cc1` as the compound, how does the relative growth read?
A: The relative growth was inactive: 0.989.

Q: How did the relative growth turn out when `C[C@@H]1CN([C@H](C)CO)C(=O)c2cc(NC(=O)Nc3ccc(F)cc3)ccc2O[C@H]1CN(C)Cc1ccc(Oc2ccccc2)cc1` was run?
A: The relative growth was inactive: 0.964.

Q: For `NCC(=O)CCC(=O)O`, which relative growth is on record?
A: Its relative growth is inactive: 1.02.

Q: `Cn1cnc(CCNC(=O)C[C@H]2CC[C@@H]3[C@H](COC[C@@H](O)CN3C(=O)Nc3ccc(Cl)cc3)O2)c1` was tested. Which relative growth did it give?
A: The relative growth was inactive: 0.93.

Q: For `COc1ccc2c3c(n(c2c1)C)[C@H](CO)N(C[C@]13CN(C1)C(=O)CN1CCOCC1)C(=O)Nc1ccc(cc1)F`, which relative growth is on record?
A: The relative growth was inactive: 0.962.

Q: How did the relative growth turn out when `Cc1ccccc1N1CCN(S(=O)(=O)C[C@@]23CC[C@@H](C[C@@H]2NC(=O)[C@@H](N)CCS(C)(=O)=O)C3(C)C)CC1` was run?
A: The relative growth was inactive: 0.984.

Q: Which relative growth does the source give for `COc1ccccc1-c1ccc2c(c1)O[C@@H](CN(C)CC1CCOCC1)[C@@H](C)CN([C@H](C)CO)S2(=O)=O` here?
A: Its relative growth is inactive: 1.02.

Q: How did the relative growth turn out when `COc1cccc(C#Cc2cnc3c(c2)C(=O)N([C@@H](C)CO)C[C@H](C)[C@@H](CN(C)C(=O)C2CCOCC2)O3)c1` was run?
A: Its relative growth is inactive: 0.998.

Q: Which relative growth does the source give for `O=C1O[C@H](c2ccccc2)[C@H](c2ccccc2)N2[C@H]1[C@@H](C(=O)NC[C@@H](O)c1ccccc1)[C@]1(C(=O)Nc3ccc(C#CC4(O)CCCCCC4)cc31)[C@H]2c1ccccc1OCCO` here?
A: Its relative growth is inactive: 1.04.

Q: Which relative growth does the source give for `CNC[C@@H]1OCCCC[C@@H](C)Oc2ccc(NC(=O)Nc3cccc4ccccc34)cc2C(=O)N([C@@H](C)CO)C[C@H]1C` here?
A: Its relative growth is inactive: 1.01.

Q: How did the relative growth turn out when `Cc1noc(C)c1S(=O)(=O)Nc1ccc2c(c1)C(=O)N([C@@H](C)CO)C[C@H](C)[C@@H](CN(C)Cc1ccc(C(F)(F)F)cc1)OCCCC[C@H](C)O2` was run?
A: The relative growth was inactive: 1.02.

Q: For `COc1ccc(CN(C)C[C@@H]2OCCCC[C@H](C)Oc3ccc(NC(=O)Nc4cccc5ccccc45)cc3C(=O)N([C@H](C)CO)C[C@@H]2C)cc1`, which relative growth is on record?
A: The relative growth was inactive: 0.956.

Q: `COc1ccc(S(=O)(=O)N(C)C[C@H]2Oc3ccc(NC(=O)c4ccncc4)cc3C(=O)N([C@@H](C)CO)C[C@H]2C)cc1` was tested. Which relative growth did it give?
A: Its relative growth is inactive: 0.98.

Q: Which relative growth does the source give for `COc1ccc(NC(=O)Nc2ccc3c(c2)C(=O)N([C@H](C)CO)C[C@@H](C)[C@H](CN(C)C(=O)c2ccccc2)OCCCC[C@@H](C)O3)cc1` here?
A: The relative growth was inactive: 1.01.

Q: For `CCCOc1ccnc2c1c(=O)n(C)c(=O)n2C`, which relative growth is on record?
A: Its relative growth is inactive: 1.05.

Q: Which relative growth does the source give for `CCCc1cc(=O)oc2cc3occ(-c4ccccc4)c3cc12` here?
A: Its relative growth is inactive: 1.01.

Q: Which relative growth does the source give for `C[C@@H]1CCCCO[C@H](CN(C)C(=O)Nc2ccccc2)[C@@H](C)CN([C@H](C)CO)C(=O)c2cc(NC(=O)NC3CCCCC3)ccc2O1` here?
A: Its relative growth is inactive: 0.993.

Q: With `COc1ccc(C(=O)Nc2ccc(CN3C(=O)[C@]4(O[C@H](CCO)[C@@H]([Si](C)(C)F)[C@@H]4C)c4ccccc43)cc2)cc1` as the compound, how does the relative growth read?
A: Its relative growth is inactive: 0.916.

Q: With `COc1ccc(NC(=O)N(C)C[C@@H]2Oc3c(NC(=O)c4cnccn4)cccc3C(=O)N([C@H](C)CO)C[C@H]2C)cc1` as the compound, how does the relative growth read?
A: The relative growth was inactive: 1.01.

Q: Which relative growth does the source give for `C[C@@H]1CN([C@H](C)CO)S(=O)(=O)c2ccc(-c3cccnc3)cc2O[C@H]1CN(C)CC1CCOCC1` here?
A: The relative growth was inactive: 0.978.

Q: Which relative growth does the source give for `C[C@@H]1CCCCO[C@@H](CN(C)C(=O)Cc2ccccc2)[C@@H](C)CN([C@H](C)CO)C(=O)c2cc(NC(=O)Nc3cccc4ccccc34)ccc2O1` here?
A: Its relative growth is inactive: 1.04.

Q: `C[C@@H]1CN([C@@H](C)CO)C(=O)Cc2cc(NS(=O)(=O)c3cccs3)ccc2O[C@@H]1CN(C)S(=O)(=O)c1ccc(F)cc1` was tested. Which relative growth did it give?
A: The relative growth was inactive: 1.01.

Q: Which relative growth does the source give for `Cc1noc(C)c1NC(=O)N(C)C[C@@H]1Oc2ccc(NC(=O)C3CC3)cc2C(=O)N([C@@H](C)CO)C[C@H]1C` here?
A: Its relative growth is inactive: 1.02.

Q: How did the relative growth turn out when `C[C@@H]1CN([C@H](C)CO)C(=O)c2cc(NC(=O)Nc3ccc4c(c3)OCO4)ccc2O[C@@H](C)CCCCO[C@H]1CN(C)S(=O)(=O)c1cccs1` was run?
A: Its relative growth is inactive: 1.04.

Q: For `Cc1ccccc1S(=O)(=O)N1C[C@@H](O)COC[C@H]2O[C@H](CC(=O)NCc3ccc(Cl)c(Cl)c3)CC[C@@H]21`, which relative growth is on record?
A: The relative growth was inactive: 0.995.
